The text below walks through data of ChEMBL document CHEMBL4888484, “Replenishing the malaria drug discovery pipeline: Screening and hit evaluation of the MMV Hit Generation Library 1 (HGL1) against asexual blood stage Plasmodium falciparum ,using a nano luciferase reporter read-out” (2022).

Screen size: about 150,000 compounds; about 540 (0.36%) showed an effect of 50% or more. Some of the results follow.

The test system of the experiment is Plasmodium falciparum. Kind of experiment: Primary screen in NF54 nanoGlo assay, in single point, at 2uM, 72h; a lower Z score goes with more inhibition. It counts as functional, Erythrocyte. The conditions noted are these: timepoint 72 hour.
As for `COc1ccc(NC(=O)Cn2cnc3c(c2=O)CN(Cc2ccc(C)cc2)CC3)cc1`, the % Inhibition (commonly the relative decrease from the control value, in per cent) is -4% and the Z score is given as 0.65.

`NC1=C(c2nc3ccccc3[nH]2)C(=O)CN1c1ccccc1`: the “% Inhibition” value is -1% and the Z score was 0.08.

`Cc1ccc(C(=O)N(C)CCC2CCOCC2)s1`: the “% Inhibition” value is reported as -8% and the Z score stood at 1.36.

As to `CCOc1ccc([C@H]2CC(=O)N(Cc3ccccc3C)c3c2c(C)nn3-c2nc(C)cc(C)n2)cc1`, the “% Inhibition” value is listed as -10% and the Z score was determined as 1.41.

Take `Cc1ccc2c(c1)CCCN2C(=O)C1C2C=CC(O2)C1C(=O)O` (centres undefined): the “% Inhibition” value is listed as -2% and the Z score is recorded as 0.3.

With `COc1ccc(OC)c(CN2CCc3[nH]cnc3[C@@H]2c2ccc(C)o2)c1`, the “% Inhibition” value was -16% and the Z score came out at 2.07.

As for `CN(C)c1ncccc1CNc1ccc(C(=O)Nc2ccccc2)nn1`, the “% Inhibition” value was -22% and the Z score is 1.99.

For `CCn1cc(C2CCN(C(=O)NCc3nnc([C@@H]4CCCO4)[nH]3)CC2)cn1`, the “% Inhibition” value was 1% and the Z score is listed as -0.24.

As for `Cc1ccc(N2CCCN(Cc3ccc(C(F)(F)F)cc3)C2=O)c(NC(=O)c2ccc(F)cc2F)c1`, the “% Inhibition” value was -5% and the Z score amounted to 0.78.

On to `CCCCNc1ccc(S(=O)(=O)N2CCCC2)cc1NC(=O)COc1ccccc1OCC`, for which the “% Inhibition” value is -14% and the Z score was determined as 1.94.

As for `COc1ccc(CN(Cc2ccco2)C(=O)CC(C)C)cc1OCc1nc(CO)cs1`, the “% Inhibition” value is 28% and the Z score is reported as -3.42.

For the molecule `CCn1cncc1CNC1CCN(c2ccc3c(c2)CCC3)CC1`, the “% Inhibition” value is given as -14% and the Z score is listed as 1.42.

For the molecule `Oc1cccc(-c2cc(C[C@@H]3CC[C@H](O)[C@@H](CNC4CCC4)O3)no2)c1`, the “% Inhibition” value is listed as 4% and the Z score is given as -0.67.

Take `Cn1ccc(COC(=O)Cc2cccc(Cl)c2)n1`: the “% Inhibition” value is recorded as -6% and the Z score is listed as 0.58.

`O=C(Cn1ccn2cc(Br)cc2c1=O)Nc1ccc(Cl)c(Cl)c1`: the “% Inhibition” value is -4% and the Z score is 0.61.

Consider `O=C1C[C@H](c2ccc(O)c(Cl)c2)c2cnn(Cc3ccccc3)c2N1`, for which the “% Inhibition” value stood at 0% and the Z score turned out to be 0.02.

On to `CN(C)C[C@H]1CN(CC(=O)N(C)Cc2cccs2)CCO1`, for which the “% Inhibition” value is -7% and the Z score worked out at 0.72.

Consider `CCC(C)(C)NC(=O)[C@H](C)NC(=O)c1ccc(Br)o1`, for which the “% Inhibition” value is on record as -9% and the Z score is 0.8.

Take `CCc1nnc(CN(C)Cc2c(C)nn(C)c2Cl)o1`: the “% Inhibition” value is listed as 2% and the Z score was -0.19.

Consider `N[C@@H](CCC(=O)O)c1ccc(Br)cc1`, for which the “% Inhibition” value is recorded as -11% and the Z score was found to be 1.67.

As for `c1coc(CCc2nnc3n2CCOC3)c1`, the “% Inhibition” value was 0% and the Z score is given as -0.02.

On to `CCn1nc(C(=O)O)c(C)c1Oc1ccc(NC(=O)CC(C)C)cc1S(=O)(=O)NC(C)(C)C`, for which the “% Inhibition” value worked out at 3% and the Z score is reported as -0.44.

In the case of `Cc1nc2c(C(=O)NC[C@H]3CCN(c4cnn(C)c(=O)c4)C3)cccc2[nH]1`, the “% Inhibition” value is -15% and the Z score worked out at 1.89.

With `COC1CCN(C2CN(C(=O)NC(c3ccccc3)c3ccccc3)C2)CC1`, the “% Inhibition” value is given as -12% and the Z score is given as 2.23.

For `CC(C)c1noc(NC[C@H]2CCCCS2(=O)=O)n1`, the “% Inhibition” value was -2% and the Z score is on record as 0.2.

`CC(=O)N1CCO[C@H](C(=O)N2CCN(c3cccc(F)c3)CC2)C1`: the “% Inhibition” value is recorded as 1% and the Z score was -0.24.

Turning to `Cc1ncc(CNC(=O)N2CC[C@H](OCCC(C)C)C2)s1`, the “% Inhibition” value is -8% and the Z score is 0.93.

Consider `CCc1cccc2c([C@H](CC(=O)NCCN3CCOCC3)c3ccc(F)cc3)c[nH]c12`, for which the “% Inhibition” value is 3% and the Z score was -0.38.

`Cc1ccc2oc(CN(CCC#N)CCC#N)cc2c1`: the “% Inhibition” value is given as -7% and the Z score was 1.24.

Turning to `Cn1cc([C@H]2OCC[C@@H]2CNc2ncnc3c2ncn3C2CC2)cn1`, the “% Inhibition” value came to 2% and the Z score was -0.26.

On to `CCN1CCN(C(=O)CCC2CCN(C(=O)c3cc(C)[nH]c(=O)c3)CC2)CC1`, for which the “% Inhibition” value is given as -3% and the Z score is 0.53.

Take `O=C(Nc1nnc(-c2ccc3c(c2)OCO3)s1)[C@@H]1CCCN1C(=O)Nc1ccc(Cl)cc1Cl`: the “% Inhibition” value was 4% and the Z score is -0.6.

Turning to `COCCn1c(N)c(N(Cc2ccccc2)C(=O)c2occc2C)c(=O)[nH]c1=O`, the “% Inhibition” value is on record as -4% and the Z score turned out to be 0.62.

With `Cc1nc(C(=O)N[C@H]2CCc3cn(C(C)C)nc3C2)c(C)o1`, the “% Inhibition” value is recorded as -8% and the Z score came to 1.45.

In the case of `CC(C)C(=O)NCCNC(=O)C1=NN(C)C(=O)CC1`, the “% Inhibition” value is on record as -6% and the Z score is given as 0.88.

On to `CCc1cc(C#N)ccc1NC(=O)NC[C@H]1COCCO1`, for which the “% Inhibition” value is given as 0% and the Z score turned out to be 0.

In the case of `Cc1ccc(CN(CCO)C(=O)COC[C@H]2CCCCO2)s1`, the “% Inhibition” value is given as 5% and the Z score was -0.74.

As to `Cc1ccc(C2CCN(S(C)(=O)=O)CC2)cn1`, the “% Inhibition” value is -11% and the Z score is on record as 1.08.

With `CCC(NC(=O)c1cc(C(C)(C)C)nc(=O)[nH]1)[C@H]1C[C@@H](O)C1` (some centres undefined), the “% Inhibition” value was -5% and the Z score was 0.84.

Regarding `O=C(c1ccccc1)c1c[nH]c(C(=O)NCc2cccnc2)c1`, the “% Inhibition” value turned out to be 30% and the Z score is on record as -3.88.

`CS(=O)(=O)N1CCC(C(=O)N2CC(c3nc(-c4ccccc4)no3)C2)CC1`: the “% Inhibition” value was -10% and the Z score came to 1.91.

Regarding `Cc1noc(C)c1CN1C[C@H]2CC[C@@H](C1)N(Cc1snnc1C(C)C)C2`, the “% Inhibition” value is -3% and the Z score was found to be 0.4.
